# Records with an inconclusive call do not appear. The call rests on the fitted dose curve. A structure can be active in one record and inactive in another. A number of entries come with more than one value. This list holds those alone. An entry can have further records. Values given together repeat one measurement (runs, samples, wells, individuals or studies). A tag in brackets gives the origin of a value. A, B and so on number the origins entry by entry.
# Biological target: Nucleoprotein (Lymphocytic choriomeningitis virus (strain Armstrong)) (UniProt P09992)
# Assay: qHTS for Inhibitors of the Functional Ribonucleoprotein Complex (vRNP) of Lymphocytic Choriomeningitis Arenaviruses (LCMV): LCMV Primary Screen - GLuc reporter signal (AID 1347086); further: nearly all actives have a fitted effect of over 70% in size
# Conditions: LCMV minigenome vRNP cell assay, Gaussia luciferase reporter; series mostly up to 57.5 µM
# Potency means the concentration at half of the fitted maximal effect.
# Sequence of UniProt P09992 (P09992 whole entry, looked up): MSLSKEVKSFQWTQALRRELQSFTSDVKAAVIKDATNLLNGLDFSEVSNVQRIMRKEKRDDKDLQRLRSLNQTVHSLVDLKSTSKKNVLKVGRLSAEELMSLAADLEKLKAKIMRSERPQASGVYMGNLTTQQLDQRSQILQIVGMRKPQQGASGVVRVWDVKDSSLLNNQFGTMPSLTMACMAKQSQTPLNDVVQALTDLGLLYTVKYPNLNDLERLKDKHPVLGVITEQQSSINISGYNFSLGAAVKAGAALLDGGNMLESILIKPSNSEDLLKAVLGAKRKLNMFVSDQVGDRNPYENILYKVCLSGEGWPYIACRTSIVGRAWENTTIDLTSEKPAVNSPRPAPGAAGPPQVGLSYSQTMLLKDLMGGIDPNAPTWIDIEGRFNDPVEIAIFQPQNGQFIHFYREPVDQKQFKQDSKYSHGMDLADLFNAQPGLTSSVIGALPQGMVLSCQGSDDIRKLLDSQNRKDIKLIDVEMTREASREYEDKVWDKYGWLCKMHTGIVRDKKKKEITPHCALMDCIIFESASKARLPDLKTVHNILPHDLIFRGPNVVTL
row,SMILES,Potency
1,Cc1ncc([N+](=O)[O-])n1CC(C)O (stereo not drawn),inactive [sample A] and active: 21.7 µM [sample B]
2,NC(=O)c1cnccn1,inactive [sample A] and inactive [sample B] and active: 19.3 µM [sample C]
3,CC(C(=O)O)c1ccc2c(c1)CC(=O)c1ccccc1S2 (stereo not drawn),active: 5.44 µM [sample A] and inactive [sample B]

# Source: PubChem BioAssay (NCATS)
